The source of these data is article PMC12820563.

The list shows a part of the results. The list includes weakly bound sequences.

This experiment has as its target T1, MBP-FoxP3dN (UniProt Q99JB6).
T1 sequence: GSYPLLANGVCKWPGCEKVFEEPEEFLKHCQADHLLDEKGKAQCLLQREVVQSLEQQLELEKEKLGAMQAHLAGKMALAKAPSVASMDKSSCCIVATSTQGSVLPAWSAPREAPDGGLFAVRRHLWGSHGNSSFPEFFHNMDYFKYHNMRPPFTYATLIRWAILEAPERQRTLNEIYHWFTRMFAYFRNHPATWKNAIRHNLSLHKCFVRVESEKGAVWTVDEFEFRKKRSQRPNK
The experiment is described as follows: PD-seq (MBP pull-down with sequencing). The note with it: 20 mM Tris-HCl pH 7.5, 100 mM NaCl, 1.5 mM MgCl2, 0.4 uM protein, 0.1 uM dsDNA library, 30 min, room temperature, amylose pull-down; high values mean tight binding; double strand, one strand shown.
Turning to “GATGATTGTTCTCCCAGCTGATGAATTAAAGTTATCGAGTAAACAAATTTTCCTAATCTTTCTGTTCAAGCGCCATCTAC”, the binding signal (RPM ratio (pull-down/input)) was 0.678.
Under “GATGATTGTTCTCCCAGCTGATGAATTAATTACATCGAGTAAACAAATTTTCCTAATCTTTCTGTTCAAGCGCCATCTAC” stands 0.851; under “GATGATTGTTCTCCCAGCTGATGAATTTAAGCCATCGAGTAAACAAATTTTCCTAATCTTTCTGTTCAAGCGCCATCTAC”, 1.47.
Consider “GATGATTGTTCTCCCAGCTGATGAATTATTGTCATCGAGTAAACAAATTTTCCTAATCTTTCTGTTCAAGCGCCATCTAC”, for which the binding signal (RPM ratio (pull-down/input)) is 1.71.
With “GATGATTGTTCTCCCAGCTGATGAATTCACTCATTCGAGTAAACAAATTTTCCTAATCTTTCTGTTCAAGCGCCATCTAC”, the binding signal (RPM ratio (pull-down/input)) was found to be 0.414.
Take “GATGATTGTTCTCCCAGCTGATGAATTCAACGTCTCGAGTAAACAAATTTTCCTAATCTTTCTGTTCAAGCGCCATCTAC”: the binding signal (RPM ratio (pull-down/input)) came out at 0.525.
Regarding “GATGATTGTTCTCCCAGCTGATGAATTACGGGTCTCGAGTAAACAAATTTTCCTAATCTTTCTGTTCAAGCGCCATCTAC”, the binding signal (RPM ratio (pull-down/input)) is 0.747.
The value for “GATGATTGTTCTCCCAGCTGATGAATTGAATACATCGAGTAAACAAATTTTCCTAATCTTTCTGTTCAAGCGCCATCTAC” was 0.741.
As to “GATGATTGTTCTCCCAGCTGATGAATTGCTTATCTCGAGTAAACAAATTTTCCTAATCTTTCTGTTCAAGCGCCATCTAC”, the binding signal (RPM ratio (pull-down/input)) came to 2.09.
The value for “GATGATTGTTCTCCCAGCTGATGAATTGGGAGTTTCGAGTAAACAAATTTTCCTAATCTTTCTGTTCAAGCGCCATCTAC” was 0.781; that for “GATGATTGTTCTCCCAGCTGATGAATTTGCGGCATCGAGTAAACAAATTTTCCTAATCTTTCTGTTCAAGCGCCATCTAC” was 1.14.
Regarding “GATGATTGTTCTCCCAGCTGATGAATTCGCGTCTTCGAGTAAACAAATTTTCCTAATCTTTCTGTTCAAGCGCCATCTAC”, the binding signal (RPM ratio (pull-down/input)) came out at 1.09.
For the sequence “GATGATTGTTCTCCCAGCTGATGAATTGGTGGTTTCGAGTAAACAAATTTTCCTAATCTTTCTGTTCAAGCGCCATCTAC”, the binding signal (RPM ratio (pull-down/input)) stood at 1.44.
For the sequence “GATGATTGTTCTCCCAGCTGATGAATTCAGCAATTCGAGTAAACAAATTTTCCTAATCTTTCTGTTCAAGCGCCATCTAC”, the binding signal (RPM ratio (pull-down/input)) came to 3.74.
As for “GATGATTGTTCTCCCAGCTGATGAATTACTAGCGTCGAGTAAACAAATTTTCCTAATCTTTCTGTTCAAGCGCCATCTAC”, the binding signal (RPM ratio (pull-down/input)) was found to be 0.483.
With “GATGATTGTTCTCCCAGCTGATGAATTTCACCTTTCGAGTAAACAAATTTTCCTAATCTTTCTGTTCAAGCGCCATCTAC”, the binding signal (RPM ratio (pull-down/input)) worked out at 0.378.
Under “GATGATTGTTCTCCCAGCTGATGAATTAAGCCGCTCGAGTAAACAAATTTTCCTAATCTTTCTGTTCAAGCGCCATCTAC” stands 1.21.
“GATGATTGTTCTCCCAGCTGATGAATTAGGTGATTCGAGTAAACAAATTTTCCTAATCTTTCTGTTCAAGCGCCATCTAC”: the binding signal (RPM ratio (pull-down/input)) came out at 1.13.
